Laboratory results taken from PubChem BioAssay (Tox21).
Several values for one entry are separate records, joined by “and”; a condition that tells them apart may be missing. Equal values may be shown once. The inconclusive results got no clear call from the source; some entries with a clear call stand among them for comparison. For some of these results: No potency is given beside an inconclusive call; the fits are too rough. Activity calls are given as the source filed them. Unless noted, the call rests on the fitted dose curve.

Experiments:
[1] = molecular target: Peroxisome proliferator-activated receptor gamma (Homo sapiens) (UniProt P37231); test: qHTS assay to identify small molecule antagonists of the peroxisome proliferator-activated receptor gamma (PPARg) signaling pathway (AID 743191); conditions: HEK293H PPARg-UAS-bla, beta-lactamase ratio, antagonist, 17 h; ratio activity, negative = inhibition: at 62.6 µM (top of the series) unless noted; further: nearly all actives have a fitted effect of over 30% in size; further: potency means the concentration at half of the fitted maximal effect; on ratio activity, negative = inhibition: on the % scale 0 is the no-effect control and ±100 the full control effect
In short: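 GeneBLAzer PPARg UAS-bla HEK293H cells carrying a UAS-driven beta-lactamase reporter were plated at 3000 cells/well, preincubated 5 h at 37C, then given compound for 17 h at 37C; LiveBLAzer B/G FRET substrate was read after 1 h at room temperature.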

[2] = qHTS assay for small molecule agonists of the antioxidant response element (ARE) signaling pathway (AID 743202; active means well fitted activation curve with a large enough effect in the signal ratio in the repeat runs, not every such curve was filed as active; inconclusive means weak or mixed curves, or effect the other way; inactive means no such curve, though single readings can be large or run the other way; the % refers to the signal ratio; further: potency means the concentration at half of the fitted maximal effect); conditions: HepG2 ARE-bla reporter, beta-lactamase FRET, 16 h; activation: at 73.3 µM (top of the series) unless noted
In short: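 Read-out: LiveBLAzer B/G FRET substrate fluorescence after 2 h at room temperature, following 16 h compound treatment at 37 C of HepG2 cells carrying an ARE-driven beta-lactamase reporter.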

[3] = qHTS assay for small molecule activators of the heat shock response signaling pathway - cell viability counter screen (AID 743209; active means well fitted curve in the direction sought with a large enough effect in the repeat runs; inconclusive means weak or mixed curves; inactive means no such curve, though single readings can be large; an effect the other way counts as inactive or inconclusive; further: nearly all actives have a fitted effect of over 50% in size; further: potency means the concentration at half of the fitted maximal effect); conditions: HSE-bla HeLa viability, CellTiter-Glo luminescence, 5 h; activity change, negative = cytotoxicity: at 62.6 µM (top of the series) unless noted
In short: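 HSE-bla HeLa cells plated overnight, then exposed to Tox21 compounds (23 nL in DMSO) for 5 h at 37 C. After the bla reporter read, CellTiter-Glo was added in the same wells and luminescence read after 30 min at room temperature.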

[4] = molecular target: Vitamin D3 receptor (Homo sapiens) (UniProt P11473); test: qHTS assay to identify small molecule agonists of the vitamin D receptor (VDR) signaling pathway (AID 743222); conditions: HEK293T VDR-UAS-bla, beta-lactamase FRET ratio, 16 h; activation: at 63.5 µM (top of the series) unless noted; further: potency means the concentration at half of the fitted maximal effect
In short: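 VDR-bla cells plated 4 h at 37 C, then exposed to compounds for 16 h at 37 C. Beta-lactamase reporter activity measured by fluorescence after 2 h room-temperature loading with LiveBLAzer B/G FRET substrate.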

[5] = molecular target: Vitamin D3 receptor (Homo sapiens) (UniProt P11473); test: qHTS assay to identify small molecule antagonists of the vitamin D receptor (VDR) signaling pathway (AID 743223; active means well fitted inhibition curve with a large enough effect in the signal ratio in the repeat runs, not every such curve was filed as active; inconclusive means weak or mixed curves, or effect the other way; inactive means no such curve, though single readings can be large or run the other way; the % refers to the signal ratio; further: on the % scale 0 is the no-effect control and ±100 the full control effect); conditions: VDR-UAS-bla HEK293T, beta-lactamase FRET ratio, 16 h; activity change, negative = inhibition: at 61 µM (top of the series) unless noted
In short: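 Beta-lactamase reporter read-out: FRET substrate fluorescence after 2 h at room temperature, following 16 h exposure of VDR-bla cells to test compound plus 3 nM (final) 1alpha,25-dihydroxyvitamin D3 agonist at 37C.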

[6] = qHTS assay to identify small molecule agonists of the endoplasmic reticulum stress response signaling pathway (AID 1159516; active means well fitted activation curve with a large enough effect in the signal ratio in the repeat runs, not every such curve was filed as active; inconclusive means weak or mixed curves, or effect the other way; the % refers to the signal ratio; further: potency means the concentration at half of the fitted maximal effect); conditions: ESRE-bla HeLa, ER stress beta-lactamase reporter, 5 h; activation: at 61 µM (top of the series) unless noted
In short: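 CellSensor ESRE-bla HeLa cells, 1,500 per well, plated overnight, then exposed to compounds for 5 hr at 37 C. Beta-lactamase reporter read with LiveBLAzer B/G FRET substrate after 2 hr at room temperature, 405 nm excitation, 460 and 530 nm emission.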

[7] = qHTS assay for small molecule agonists of the antioxidant response element (ARE) signaling pathway - cell viability counter screen (AID 743203); further: potency means the concentration at half of the fitted maximal effect; nearly all actives have a fitted effect of over 55% in size
In short: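 ARE-bla HepG2 cells were plated, rested 5 h at 37C/5% CO2, then exposed to compounds in DMSO for 16 h. Viability was read as CellTiter-Glo luminescence after 30 min at room temperature, in the same wells as the ARE screen.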

[8] = molecular target: Peroxisome proliferator-activated receptor delta (Homo sapiens) (UniProt Q03181); test: qHTS assay to identify small molecule agonists of the peroxisome proliferator-activated receptor delta (PPARd) signaling pathway (AID 743212); conditions: HEK293H PPARd-UAS-bla, beta-lactamase FRET ratio, 17 h; activation: at 62.6 µM (top of the series) unless noted; further: on the % scale 0 is the no-effect control and ±100 the full control effect
In short: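 GeneBLAzer PPARd UAS-bla HEK293H cells (beta-lactamase reporter under UAS control), plated and rested 5 h at 37 C, then exposed to compounds in DMSO at 37 C; LiveBLAzer B/G FRET substrate added, 2 h room temperature, fluorescence read.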

[9] = qHTS assay to identify small molecule antagonists of the peroxisome proliferator-activated receptor delta (PPARd) signaling pathway - cell viability counter screen (AID 743213; active means well fitted curve in the direction sought with a large enough effect in the repeat runs; inconclusive means weak or mixed curves; inactive means no such curve, though single readings can be large; an effect the other way counts as inactive or inconclusive; further: on the % scale 0 is the no-effect control and ±100 the full control effect; nearly all actives have a fitted effect of over 50% in size); conditions: PPARd-bla HEK293H viability, CellTiter-Glo luminescence, 17 h; viability change, negative = cytotoxic: at 62 µM (top of the series) unless noted
In short: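 Luminescence from CellTiter-Glo, added after the bla read and incubated 30 min at room temperature, gives viability of HEK293H PPARd-bla cells exposed to compounds for 17 h at 37 C with 300 nM L165041.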

[10] = molecular target: Bile acid receptor (Homo sapiens) (UniProt Q96RI1); test: qHTS assay to identify small molecule antagonists of the farnesoid-X-receptor (FXR) signaling pathway (AID 743217; active means well fitted inhibition curve with a large enough effect in the signal ratio in the repeat runs, not every such curve was filed as active; inconclusive means weak or mixed curves, or effect the other way; inactive means no such curve, though single readings can be large or run the other way; the % refers to the signal ratio; further: on the % scale 0 is the no-effect control and ±100 the full control effect); conditions: HEK293T FXR-UAS-bla, beta-lactamase ratio, CDCA-stimulated, 16 h; activity change, negative = inhibition: at 62.6 µM (top of the series) unless noted
In short: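 FXR-UAS-bla HEK 293T cells (beta-lactamase reporter) given compound plus chenodeoxycholic acid (50 uM final), 16 h at 37C. LiveBLAzer B/G FRET substrate added for 2 h at room temperature; fluorescence read.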

[11] = qHTS assay to identify small molecule antagonists of the farnesoid-X-receptor (FXR) signaling pathway - cell viability counter screen (AID 743221; active means well fitted cell-killing curve with a large enough effect in the repeat runs, not every such curve was filed as active; inconclusive means weak or mixed curves, or effect the other way; inactive means no such curve, though single readings can be large or run the other way; further: potency means the concentration at half of the fitted maximal effect; nearly all actives have a fitted effect of over 50% in size); conditions: FXR-bla HEK293T viability, CellTiter-Glo luminescence, 16 h; activity change, negative = cytotoxicity: at 62.6 µM (top of the series) unless noted
In short: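 HEK 293T FXR-bla cells, 5 h pre-incubation; compound + CDCA 50 uM final, 16 h, 37 C; beta-lactamase FRET read first, then CellTiter-Glo luminescence, 30 min RT.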

[12] = qHTS assay to identify small molecule agonists of the vitamin D receptor (VDR) signaling pathway - cell viability counter screen (AID 743224; active means well fitted curve in the direction sought with a large enough effect in the repeat runs; inconclusive means weak or mixed curves; inactive means no such curve, though single readings can be large; an effect the other way counts as inactive or inconclusive; further: nearly all actives have a fitted effect of over 50% in size; further: potency means the concentration at half of the fitted maximal effect)
In short: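 VDR-bla cells, 4 h after plating, exposed to compounds for 16 h at 37C; viability then read in the same wells as CellTiter-Glo luminescence after 30 min at room temperature, following the bla FRET read.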

[13] = qHTS assay to identify small molecule antagonists of the peroxisome proliferator-activated receptor gamma (PPARg) signaling pathway - cell viability counter screen (AID 743194; active means well fitted curve in the direction sought with a large enough effect in the repeat runs; inconclusive means weak or mixed curves; inactive means no such curve, though single readings can be large; an effect the other way counts as inactive or inconclusive; further: potency means the concentration at half of the fitted maximal effect; nearly all actives have a fitted effect of over 55% in size); conditions: PPARg-bla HEK293H viability, CellTiter-Glo luminescence, 17 h; Potency: co-treated with 50 nM rosiglitazone unless noted; activity change, negative = cytotoxicity: at 62.6 µM (top of the series), co-treated with 50 nM rosiglitazone unless noted
In short: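 PPARg-UAS-bla HEK293H cells were plated, rested 5 h at 37 C, then treated with compounds plus rosiglitazone (50 nM final) for 17 h at 37 C; viability was then read by CellTiter-Glo luminescence after 30 min at room temperature.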

[14] = qHTS assay to identify small molecule agonists of the farnesoid-X-receptor (FXR) signaling pathway - cell viability counter screen (AID 743218; active means well fitted curve in the direction sought with a large enough effect in the repeat runs; inconclusive means weak or mixed curves; inactive means no such curve, though single readings can be large; an effect the other way counts as inactive or inconclusive; further: potency means the concentration at half of the fitted maximal effect; nearly all actives have a fitted effect of over 45% in size); conditions: FXR-bla HEK293T viability, CellTiter-Glo luminescence, 16 h; viability change, negative = cytotoxic: at 62.6 µM (top of the series) unless noted
In short: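 FXR-UAS-bla HEK 293T cells exposed to compounds for 16 h at 37C. Cytotoxicity read in the same wells by CellTiter-Glo luminescence after 30 min at room temperature, following the beta-lactamase FRET read.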
Tags describe the fitted curve by direction and shape or compound fluorescence and quenching.

UniProt P11473, sequence (P11473 whole entry, looked up): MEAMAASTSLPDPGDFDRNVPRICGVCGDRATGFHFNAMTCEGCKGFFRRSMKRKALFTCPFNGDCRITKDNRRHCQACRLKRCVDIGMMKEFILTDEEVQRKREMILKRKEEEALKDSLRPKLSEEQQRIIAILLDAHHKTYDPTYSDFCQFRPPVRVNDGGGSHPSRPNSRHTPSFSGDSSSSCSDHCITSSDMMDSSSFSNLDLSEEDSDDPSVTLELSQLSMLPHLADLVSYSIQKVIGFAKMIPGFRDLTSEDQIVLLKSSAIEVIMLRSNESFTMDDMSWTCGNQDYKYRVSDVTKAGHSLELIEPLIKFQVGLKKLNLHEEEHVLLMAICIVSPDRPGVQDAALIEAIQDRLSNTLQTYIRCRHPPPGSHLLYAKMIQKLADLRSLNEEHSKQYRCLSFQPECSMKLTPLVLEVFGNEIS
UniProt P37231, sequence (P37231 whole entry, looked up): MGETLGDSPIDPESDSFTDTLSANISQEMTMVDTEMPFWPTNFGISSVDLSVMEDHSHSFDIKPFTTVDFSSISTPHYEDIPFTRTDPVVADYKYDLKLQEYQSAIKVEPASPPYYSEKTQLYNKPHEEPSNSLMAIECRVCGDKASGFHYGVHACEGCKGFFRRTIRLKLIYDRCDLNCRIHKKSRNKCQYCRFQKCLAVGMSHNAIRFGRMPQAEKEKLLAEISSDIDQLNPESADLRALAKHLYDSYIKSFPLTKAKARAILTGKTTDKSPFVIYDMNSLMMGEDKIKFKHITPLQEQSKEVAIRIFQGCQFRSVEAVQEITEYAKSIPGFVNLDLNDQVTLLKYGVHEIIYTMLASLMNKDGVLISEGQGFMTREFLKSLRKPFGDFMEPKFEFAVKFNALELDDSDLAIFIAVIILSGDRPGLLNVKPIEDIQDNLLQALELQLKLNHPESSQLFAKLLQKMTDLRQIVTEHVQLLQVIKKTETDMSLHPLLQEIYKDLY
UniProt Q96RI1, sequence (Q96RI1 whole entry, looked up): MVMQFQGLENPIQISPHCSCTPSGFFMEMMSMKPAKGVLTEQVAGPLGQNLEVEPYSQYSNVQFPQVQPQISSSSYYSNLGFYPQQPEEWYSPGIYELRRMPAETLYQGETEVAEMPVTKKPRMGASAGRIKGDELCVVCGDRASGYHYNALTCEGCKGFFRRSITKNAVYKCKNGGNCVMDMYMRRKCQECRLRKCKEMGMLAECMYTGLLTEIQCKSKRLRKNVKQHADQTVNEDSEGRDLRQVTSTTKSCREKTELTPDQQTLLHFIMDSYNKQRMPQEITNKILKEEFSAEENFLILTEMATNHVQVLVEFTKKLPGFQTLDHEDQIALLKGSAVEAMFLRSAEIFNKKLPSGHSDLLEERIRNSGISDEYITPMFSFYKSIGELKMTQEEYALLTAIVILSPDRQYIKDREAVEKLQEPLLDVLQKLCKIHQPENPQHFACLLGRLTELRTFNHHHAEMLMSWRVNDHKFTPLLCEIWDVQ
UniProt Q03181, sequence (Q03181 whole entry, looked up): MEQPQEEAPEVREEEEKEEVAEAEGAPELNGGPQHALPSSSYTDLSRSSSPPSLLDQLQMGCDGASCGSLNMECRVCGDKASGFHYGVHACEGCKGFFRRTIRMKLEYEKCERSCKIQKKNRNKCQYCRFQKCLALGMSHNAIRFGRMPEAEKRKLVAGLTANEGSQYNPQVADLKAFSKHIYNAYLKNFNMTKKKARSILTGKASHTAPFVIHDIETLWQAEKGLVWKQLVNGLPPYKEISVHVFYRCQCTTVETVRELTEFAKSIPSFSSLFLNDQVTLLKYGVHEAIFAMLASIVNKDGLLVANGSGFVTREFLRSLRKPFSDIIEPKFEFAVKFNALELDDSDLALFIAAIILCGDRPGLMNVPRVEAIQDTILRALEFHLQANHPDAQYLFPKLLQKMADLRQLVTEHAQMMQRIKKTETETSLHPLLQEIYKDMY

Q: What does the source list for C[C@]12CCC(=O)C(O)=C1CC[C@@H]1[C@@H]2CC[C@]2(C)C(=O)CC[C@@H]12?
A: ratio activity, negative = inhibition [1]: inconclusive: 8.01%; activation [2]: inconclusive: 19.5% and inconclusive: 17.2%; Potency [3]: inconclusive [cytotoxic, full curve, poor fit]; Potency [4]: inconclusive [rising, partial curve]; activity change, negative = inhibition [5]: inconclusive: 26.9%; Potency [6]: inconclusive [rising, full curve, poor fit]

Q: Which results are given for COP(=S)(OC)Oc1cc(Cl)c(Br)cc1Cl?
A: Potency [1]: active: 43.6 µM; activation [2]: inconclusive: -1.65%; Potency [7]: inconclusive [cytotoxic, partial curve, poor fit]; Potency [8]: inactive; Potency [9]: inactive; activity change, negative = inhibition [10]: inconclusive: -32.6%; Potency [11]: inconclusive [falling, partial curve, poor fit]; Potency [12]: inactive; Potency [6]: inconclusive [falling, partial curve, poor fit]

Q: For ClC(Cl)(Cl)C(Cl)(Cl)Cl, which Potency [1] is on record?
A: Its Potency is “inactive”.

Q: And the Potency [2]?
A: The Potency was “inactive”.

Q: What about the Potency [6] of the same compound?
A: The Potency was “inactive”.

Q: With Cc1nn(-c2cc(NS(C)(=O)=O)c(Cl)cc2Cl)c(=O)n1C(F)F as the compound, how does the Potency [1] read?
A: The Potency was inconclusive [inhibitor, partial curve].

Q: What about the activation [2] of the same compound?
A: The activation was inconclusive: -10.4%.

Q: What about the Potency [6] of the same compound?
A: Its Potency is inconclusive [falling, partial curve, poor fit].

Q: Which ratio activity, negative = inhibition [1] does the source give for c1nc[nH]n1 here?
A: Its ratio activity, negative = inhibition is inconclusive: -14.8%.

Q: What about the activation [2] of the same compound?
A: Its activation is inconclusive: 18.8%.

Q: And the Potency [3]?
A: Its Potency is inconclusive [cytotoxic, full curve, poor fit] and inactive.

Q: And the activity change, negative = inhibition [5]?
A: Its activity change, negative = inhibition is inconclusive: 22.3%.

Q: What about the Potency [6] of the same compound?
A: The Potency was inconclusive [rising, partial curve, poor fit].

Q: Which ratio activity, negative = inhibition [1] does the source give for CCCCCCCCCCCCN=C(N)N here?
A: The ratio activity, negative = inhibition was inactive: -16.9% [at 2.7 µM].

Q: And the Potency [13]?
A: Its Potency is inconclusive [cytotoxic, partial curve, poor fit].

Q: And the Potency [2]?
A: Its Potency is inconclusive.

Q: And the Potency [14]?
A: Its Potency is inconclusive [cytotoxic, full curve, poor fit].

Q: What about the activation [4] of the same compound?
A: Its activation is inactive: -0.533% [at 2.71 µM].

Q: And the activity change, negative = inhibition [5]?
A: The activity change, negative = inhibition was inactive: 3.88% [at 3.11 µM].

Q: What about the Potency [12] of the same compound?
A: The Potency was inconclusive [cytotoxic, partial curve].

Q: What about the activation [6] of the same compound?
A: The activation was inactive: 0.217% [at 3.11 µM].
